# In publication PMC9911399, “Two distinct binding modes provide the RNA-binding protein RbFox with extraordinary sequence specificity”:
# Residue numbers refer to the chain shown, from its start. The list shows a part of the results.
# T1: RBFOX1 RRM RbFoxmut (Fox-RRM*) (Homo sapiens, UniProt Q9NWB1 109-208, R118D;E147R;N151S;E152T)
# T1 sequence: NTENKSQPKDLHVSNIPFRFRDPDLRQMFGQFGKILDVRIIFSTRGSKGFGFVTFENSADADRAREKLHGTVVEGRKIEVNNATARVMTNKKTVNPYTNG
# B1: UCUCCCU (DNA:RNA)
# RNA: GGGAGACCGGAAUUCAGAUUGUCCUCUCCCUUUAAAUCCCGUCGUAGCCACCA
# DNA 1: CAATCTGAATTCCGGTCTCCC
# DNA 2: TGGTGGCTACGACGGGATT
# B2: GAAGCCA (DNA:RNA)
# RNA: B1 RNA with U25G, C26A, U27A, C28G, U31A
# DNA 1: CAATCTGAATTCCGGTCTCCC
# DNA 2: TGGTGGCTACGACGGGATT
# B3: ACUACGU (DNA:RNA)
# RNA: B1 RNA with U25A, C28A, C30G
# DNA 1: CAATCTGAATTCCGGTCTCCC
# DNA 2: TGGTGGCTACGACGGGATT
# B4: GCACGCG (DNA:RNA)
# RNA: B1 RNA with U25G, U27A, C29G, U31G
# DNA 1: CAATCTGAATTCCGGTCTCCC
# DNA 2: TGGTGGCTACGACGGGATT
# B5: GUCCUAC (DNA:RNA)
# RNA: B1 RNA with U25G, C26U, U27C, C29U, C30A, U31C
# DNA 1: CAATCTGAATTCCGGTCTCCC
# DNA 2: TGGTGGCTACGACGGGATT
# B6: ACCUAGA (DNA:RNA)
# RNA: B1 RNA with U25A, U27C, C28U, C29A, C30G, U31A
# DNA 1: CAATCTGAATTCCGGTCTCCC
# DNA 2: TGGTGGCTACGACGGGATT
# B7: CUCAACC (DNA:RNA)
# RNA: B1 RNA with U25C, C26U, U27C, C28A, C29A, U31C
# DNA 1: CAATCTGAATTCCGGTCTCCC
# DNA 2: TGGTGGCTACGACGGGATT
# B8: CCGGCCU (DNA:RNA)
# RNA: B1 RNA with U25C, U27G, C28G
# DNA 1: CAATCTGAATTCCGGTCTCCC
# DNA 2: TGGTGGCTACGACGGGATT
# B9: CUGCCAC (DNA:RNA)
# RNA: B1 RNA with U25C, C26U, U27G, C30A, U31C
# DNA 1: CAATCTGAATTCCGGTCTCCC
# DNA 2: TGGTGGCTACGACGGGATT
# B10: GUAGGUU (DNA:RNA)
# RNA: B1 RNA with U25G, C26U, U27A, C28G, C29G, C30U
# DNA 1: CAATCTGAATTCCGGTCTCCC
# DNA 2: TGGTGGCTACGACGGGATT
# B11: CGGGCCC (DNA:RNA)
# RNA: B1 RNA with U25C, C26G, U27G, C28G, U31C
# DNA 1: CAATCTGAATTCCGGTCTCCC
# DNA 2: TGGTGGCTACGACGGGATT
# B12: UACGGUU (DNA:RNA)
# RNA: B1 RNA with C26A, U27C, C28G, C29G, C30U
# DNA 1: CAATCTGAATTCCGGTCTCCC
# DNA 2: TGGTGGCTACGACGGGATT
# B13: CGCAUGG (DNA:RNA)
# RNA: GGGAGACCGGAAUUCAGAUUGUCCCGCAUGGUUAAAUCCCGUCGUAGCCACCA
# DNA 1: CAATCTGAATTCCGGTCTCCC
# DNA 2: TGGTGGCTACGACGGGATT
# B14: UCUCGUA (DNA:RNA)
# RNA: B1 RNA with C29G, C30U, U31A
# DNA 1: CAATCTGAATTCCGGTCTCCC
# DNA 2: TGGTGGCTACGACGGGATT
# B15: UCUCAAG (DNA:RNA)
# RNA: B1 RNA with C29A, C30A, U31G
# DNA 1: CAATCTGAATTCCGGTCTCCC
# DNA 2: TGGTGGCTACGACGGGATT
# B16: UCGAGGU (DNA:RNA)
# RNA: B1 RNA with U27G, C28A, C29G, C30G
# DNA 1: CAATCTGAATTCCGGTCTCCC
# DNA 2: TGGTGGCTACGACGGGATT
# B17: GCAAACA (DNA:RNA)
# RNA: B1 RNA with U25G, U27A, C28A, C29A, U31A
# DNA 1: CAATCTGAATTCCGGTCTCCC
# DNA 2: TGGTGGCTACGACGGGATT
# B18: UGUUGGC (DNA:RNA)
# RNA: B13 RNA with C25U, C27U, A28U, U29G, G31C
# DNA 1: CAATCTGAATTCCGGTCTCCC
# DNA 2: TGGTGGCTACGACGGGATT
# B19: UCCGCGG (DNA:RNA)
# RNA: B13 RNA with C25U, G26C, A28G, U29C
# DNA 1: CAATCTGAATTCCGGTCTCCC
# DNA 2: TGGTGGCTACGACGGGATT
# B20: AGGCGUC (DNA:RNA)
# RNA: B13 RNA with C25A, C27G, A28C, U29G, G30U, G31C
# DNA 1: CAATCTGAATTCCGGTCTCCC
# DNA 2: TGGTGGCTACGACGGGATT
# B21: AAACCGU (DNA:RNA)
# RNA: B1 RNA with U25A, C26A, U27A, C30G
# DNA 1: CAATCTGAATTCCGGTCTCCC
# DNA 2: TGGTGGCTACGACGGGATT
# B22: AGUGCGA (DNA:RNA)
# RNA: B13 RNA with C25A, C27U, A28G, U29C, G31A
# DNA 1: CAATCTGAATTCCGGTCTCCC
# DNA 2: TGGTGGCTACGACGGGATT
# B23: AUUGAGC (DNA:RNA)
# RNA: B13 RNA with C25A, G26U, C27U, A28G, U29A, G31C
# DNA 1: CAATCTGAATTCCGGTCTCCC
# DNA 2: TGGTGGCTACGACGGGATT
# B24: ACAAAAG (DNA:RNA)
# RNA: B13 RNA with C25A, G26C, C27A, U29A, G30A
# DNA 1: CAATCTGAATTCCGGTCTCCC
# DNA 2: TGGTGGCTACGACGGGATT
# B25: CAUGACA (DNA:RNA)
# RNA: B1 RNA with U25C, C26A, C28G, C29A, U31A
# DNA 1: CAATCTGAATTCCGGTCTCCC
# DNA 2: TGGTGGCTACGACGGGATT
# B26: AAGCGGA (DNA:RNA)
# RNA: B13 RNA with C25A, G26A, C27G, A28C, U29G, G31A
# DNA 1: CAATCTGAATTCCGGTCTCCC
# DNA 2: TGGTGGCTACGACGGGATT
# B27: UUCACGG (DNA:RNA)
# RNA: B13 RNA with C25U, G26U, U29C
# DNA 1: CAATCTGAATTCCGGTCTCCC
# DNA 2: TGGTGGCTACGACGGGATT
# B28: AGUCCAU (DNA:RNA)
# RNA: B1 RNA with U25A, C26G, C30A
# DNA 1: CAATCTGAATTCCGGTCTCCC
# DNA 2: TGGTGGCTACGACGGGATT
# B29: UUUCUAG (DNA:RNA)
# RNA: B1 RNA with C26U, C29U, C30A, U31G
# DNA 1: CAATCTGAATTCCGGTCTCCC
# DNA 2: TGGTGGCTACGACGGGATT
# B30: AUCAGAA (DNA:RNA)
# RNA: B13 RNA with C25A, G26U, U29G, G30A, G31A
# DNA 1: CAATCTGAATTCCGGTCTCCC
# DNA 2: TGGTGGCTACGACGGGATT
# B31: GGCUUGA (DNA:RNA)
# RNA: B13 RNA with C25G, A28U, G31A
# DNA 1: CAATCTGAATTCCGGTCTCCC
# DNA 2: TGGTGGCTACGACGGGATT
# Molecular target: T1, RBFOX1 RRM RbFoxmut (Fox-RRM*)
# Assay: EMSA; HiTS-Eq, 1 nM pool, 10 min; buffer printed only for the single-RNA assays: 10 mM Tris pH 7.5, 150 mM NaCl, 3.4 mM EDTA, 0.001% NP-40, 30 C
# Conditions: tags: His6 N-terminal (pET28a); label: 5' 32P
# Summary of the method: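 These values rest on relative association constants, computed from read-count changes of each RNA species versus the control reaction and normalised to the cognate motif. Reads came from free RNA recovered by 8% native PAGE after purified RbFox RRM (wild type or mutant) at increasing concentrations was equilibrated for 10 min in 50 µL with 1 nM of a 5′-radiolabelled pool with 7 randomized nucleotides and DNA-annealed flanks.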
row,Binder,binding signal
1,B1,0.0345 KA relative to UGCAUGU
2,B2,0.0844 KA relative to UGCAUGU
3,B3,0.122 KA relative to UGCAUGU
4,B4,0.184 KA relative to UGCAUGU
5,B5,0.0713 KA relative to UGCAUGU
6,B6,0.109 KA relative to UGCAUGU
7,B7,0.0528 KA relative to UGCAUGU
8,B8,0.0519 KA relative to UGCAUGU
9,B9,0.07 KA relative to UGCAUGU
10,B10,0.12 KA relative to UGCAUGU
11,B11,0.081 KA relative to UGCAUGU
12,B12,0.0904 KA relative to UGCAUGU
13,B13,0.804 KA relative to UGCAUGU
14,B14,0.117 KA relative to UGCAUGU
15,B15,0.124 KA relative to UGCAUGU
16,B16,0.117 KA relative to UGCAUGU

row,Binder,binding signal
1,B17,0.0705 KA relative to UGCAUGU
2,B18,0.0854 KA relative to UGCAUGU
3,B19,0.0935 KA relative to UGCAUGU
4,B20,0.105 KA relative to UGCAUGU
5,B21,0.0861 KA relative to UGCAUGU
6,B22,0.0666 KA relative to UGCAUGU
7,B23,0.159 KA relative to UGCAUGU
8,B24,0.116 KA relative to UGCAUGU
9,B25,0.0647 KA relative to UGCAUGU
10,B26,0.0694 KA relative to UGCAUGU
11,B27,0.0691 KA relative to UGCAUGU
12,B28,0.0943 KA relative to UGCAUGU
13,B29,0.143 KA relative to UGCAUGU
14,B30,0.0972 KA relative to UGCAUGU
15,B31,0.244 KA relative to UGCAUGU
